Some of the results follow.
Tested on: PF3D7_0420300 AP2 domain 1 (GST-tagged)
Assay: gcPBM binding intensity (ln(normalized median fluorescence intensity)); higher = stronger DNA binding
Procedure, shortened: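 GST-fused DNA-binding domains of P. falciparum, expressed in E. coli, were applied at about 25 μg on average for 1 h to an Agilent 4 × 180k array of primer-extended double-stranded 36-bp intergenic genomic probes and negative controls. Binding intensity is the highest Masliner-normalised natural-log median intensity across replicate spots of either probe orientation, measured with Alexa488 anti-GST antibody and a 488 nm scan.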

| Sequence | gcPBM binding intensity (ln) |
| --- | --- |
| GTTCAATCGGGTGTTACTTCAAACAAGGAACAACAA [TGCATGCA_negctrl_site471] | 9.14 |
| ATAGTAAATATAAAAAGTACTGATTCTTAAATTGTT [XGTACX_site5972] | 9.32 |
| TATTTTATTGTTGTTATACACACCATATAAAATATT [CACACA_site1630] | 9.32 |
| ACTTGACACCAACACACACACATATATAAAAAAAAA [CACACA_site756] | 9.87 |
| ATATATCACAATAAAATTTATAGAATTTTAAATAAG [TGCATGCA_negctrl_site437] | 8.92 |
| AAAATAAAATAAAATACACACATACATACATACAAA [CACACA_site5366] | 9.95 |
| CAATAAAGAGGGAATTGTACTTTAAATATCCCTCTT [XGTACX_site1991] | 9.01 |
| AATAGAACAAATAAAACACACACATATATATATATA [CACACA_site8893] | 9.71 |
| AATATATTTCGAGATACACACATATATAAAAAAAAA [CACACA_site3398] | 9.57 |
| AAAAAAAAAAAAAAGACACACAATGTGAAATAATAA [CACACA_site804] | 9.45 |
| ATAAAAATTAAAAGGAGTACTTAAATATTAAGATGG [XGTACX_site4815] | 9.18 |
| TTTAAAAATATATATTGTACATATATATATCTATGA [XGTACX_site3556] | 9 |
| TACTATTTAAAATTTGAACACACATTATTTATTTTA [CACACA_site9020] | 9.23 |
| TTTATTTAAAAAATAAAAAAAAAAAAAAAAAAAAAA [CACACA_negctrl_site1670] | 8.27 |
| TATACAATATATATAACACACATATTTATATAAAAT [CACACA_site5061] | 9.57 |
| AACATAAAAATTGAAGCACACACACTAATGAAATAC [CACACA_site8287] | 10.2 |
| ACAAATCTATAAGAGTGTACGAACAGTAAAGGAATT [XGTACX_site2070] | 9.49 |
| AAAATACCATTTGAAACACACAAAAAAAAAAAAAAT [CACACA_site2981] | 9.69 |
| CAGTTGGAAGGAAAGTGTACATAAAAAAAAATATAA [XGTACX_site8784] | 9.09 |

| Sequence | gcPBM binding intensity (ln) |
| --- | --- |
| TATTTTCTCGTTTGCATGCACCTTATTTTATGTGGT [GTGCAC_site9470] | 9.41 |
| TAAAATTTGCGATGCACACAGAATAGCTAATATGAC [CACACA_site2995] | 9.62 |
| ATATTATATATATACACACACACATGCATGCACATA [CACACA_site7917] | 10.1 |
| AAATTCTGCATCGAGGTGCGCCATAAAAATTGTGGT | 9.18 |
| TACTAAAACCCATACACACACATATTTATAGTACCA [CACACA_site7484] | 9.97 |
| AGTTATTTTAAATGTAGTACACAAAAGAAATATTAA [XGTACX_site4092] | 9.18 |
| CATAAATTAAAACACACACACACAAAAAAAAAAAAA [CACACA_site2262] | 10.1 |
| CGGCTATTTCTATATACATGCATTTAAAAAAAAAAT [TGCATGCA_site354] | 8.94 |
| TATATATCTGTGAAAATACTTAAATTGTTATAAAAA [CACACA_negctrl_site1109] | 8.98 |
| AAAAAAAAAATGAGCACACATAAATAAAAACAAACA [CACACA_site1573] | 9.87 |
| ACCTATTTCAAACACACACACACACTAACAAACATA [CACACA_site8233] | 10.3 |
| AAAACATCAAAAATGTGTACATATATATATATATAT [XGTACX_site8884] | 9.11 |
| ATATATATATATGCATGTACATATTTATCTTTATAT [XGTACX_site232] | 9.25 |
| AACATATATTAGCTTACATGCAAAAAGTAAAAAAAT [TGCATGCA_site10] | 9.29 |
| AATTTAAAACGGAGATGTACATATATAAATATATAC [XGTACX_site3723] | 9.37 |
| TTTTTAATATATATCACACATATATATTTTTAATTA [CACACA_site6099] | 9.14 |
| ATAAAAATCTTTAGTAGTACATTATAAAAAACTATT [XGTACX_site5531] | 9.09 |
| ATGTGAACATTCAATGCACACGATGTAATTATACAT [CACACA_site15] | 9.25 |
| CTAATCGTGCACAACTGTACATTTGTCAAGGGCAAT [XGTACX_site8662] | 9.15 |

| Sequence | gcPBM binding intensity (ln) |
| --- | --- |
| TTATGGTGCATGAAATCACACATTGATATATATGCT [CACACA_site5352] | 9.15 |
| ACATTTAAATAATATGTGCACAGCTATATTTTCTTT [GTGCAC_site9562] | 9.21 |
| ATATATATATATATATGTACATATATATATTATATT [XGTACX_site6303] | 9.12 |
| GTGTCTTTTATTAAATGTACATATTCATAGATAAAA [XGTACX_site8578] | 8.99 |
| TTATTTTTTTGGAATTCACACACAAAAAAAAAAATA [CACACA_site8650] | 9.33 |
| ACCTTAAAAATAACTGCACACAAAAATAAATACCTT [CACACA_site8902] | 9.71 |
| ACGTAAACATGTAGAAGGCATTACACAATGGTATAC [TGCATGCA_negctrl_site512] | 9.41 |
| TAGAATGAAAAAAAAGCATGCGGGCAAAAATTTTTA [TGCATGCA_site926] | 9.28 |
| AATTGAGAAGTGTGTTGTACATAATGGCACATACCT [XGTACX_site1370] | 9.4 |
| TAATATGTTTATGGTAACATACAAAAATGTATATAT [GTGCAC_negctrl_site204] | 9.04 |
| TATTTTTTATTTTAAATCCTCTGATATTTAATTTGT [TGCATGCA_negctrl_site84] | 9.16 |
| TATCCCCTTGTCCATATTAATTGTGACATCATATAT [XGTACX_negctrl_site9] | 9.41 |
| ATGTGTATATATATGTGTACATAATTTGTGTTATTC [XGTACX_site2509] | 9.5 |
| AAGGTATAATATATTTGTACATATACATTTTTGAAT [XGTACX_site6493] | 9.18 |
| TGAAAAATGTAATGCTCACACATATATATATATATA [CACACA_site5213] | 9.24 |
| GATTTTAATGGGTGTACACATTTATTTATATAAAGT [CACACA_site5317] | 9.18 |
| ATATATTATGGGTGTGCACACAATATTTATATGTTC [CACACA_site2270] | 9.67 |
| TTATAATAAATATATAAAAAAAAAAAAAAAAAAAAA [CACACA_negctrl_site1639] | 8.42 |

Reference: the supplement of paper PMC11417369
